Source: PubChem BioAssay AID1347120 (National Center for Advancing Translational Sciences (NCATS), 2019)
In all, about 390,000 compounds went through this assay and about 930 (0.24%) were called active. Inconclusive results, whose numbers are uncertain, are shown with a selection of clear calls. Calls follow the shape of the dose curve; as a rule, active = well fitted activation curve with a large enough effect; inconclusive = small, poorly fitted or top-dose-only effect; inactive = no such curve, though single readings can be large or run the other way. Potencies of inconclusive entries are doubtful fits and often do not repeat.

experiment: qHTS for Suppressors of FUS Proteinopathy: Primary screen using FUS-linked yeast assay; also: nearly all actives have a fitted effect of over 55% in size; conditions: S. cerevisiae FUS-expressing, OD600, 24 h; Potency: growth rescue; series mostly up to 76.6 µM
Procedure, shortened: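 Steps: raffinose overnight preculture; dilution to OD 0.005 in 2% galactose minimal medium; compound addition (concentration series); 24hr at 30C, 99% humidity; absorbance read at 600 nm.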
Potency is read from the fitted curve at half-maximal effect; tags tell the direction and shape of the fitted curve.

Row | Structure (SMILES) | Potency
1 | Cc1ccc(C)c(N2CCN(C(=O)C3CCCN(Cc4nc(-c5cccc(Cl)c5)oc4C)C3)CC2)c1 (stereo not drawn) | inconclusive: 7.94 µM [activator, single point]
2 | Cc1onc(-c2ccccc2Cl)c1C(=O)Nc1ccc(N2CCOCC2)cc1 | inconclusive: 25.1 µM [activator, partial curve]
3 | CC(C)CC1C(=O)N(Cc2cn(CCC3OCCO3)nn2)CCS(=O)(=O)N1Cc1ccc(-c2ccccc2)cc1 (stereo not drawn) | inconclusive: 17.8 µM [activator, partial curve, poor fit]
4 | O=C(C1CCCN(S(=O)(=O)c2cccc3nsnc23)C1)N1CC=C(c2ccccc2)CC1 (stereo not drawn) | inconclusive: 25.1 µM [activator, partial curve, poor fit]
5 | CCOC(=O)[C@]12CCC=C1N(Cc1ccco1)C(=O)[C@H](CC(=O)NCc1cccc3ccccc13)C2 | inconclusive: 50.1 µM [activator, single point]
6 | O=C(Nc1c(-c2ccccc2)nc2ccccn12)c1cccc(F)c1 | inactive
7 | COc1ccc(-n2c(C)cc(C(=O)COC(=O)Cn3cnc4ccccc43)c2C)cc1 | inconclusive: 50.1 µM [activator, single point]
8 | COCC(=O)Nc1sc2c(c1C(=O)OC)CCC(C)C2 (stereo not drawn) | inconclusive: 50.1 µM [activator, single point]
9 | COc1ccc(OC)c(CNC(=O)c2nn(C)c3c2CSc2ccccc2-3)c1 | inactive
10 | Cc1cccc2sc(NNC(=O)c3ccc(S(=O)(=O)N4CCCC(C)C4)cc3)nc12 (stereo not drawn) | inconclusive: 35.5 µM [activator, single point]
11 | CC(=O)C1=C(C)NC(SCC(=O)Nc2nccs2)=C(C#N)C1c1ccccc1Cl (stereo not drawn) | inconclusive: 31.6 µM [activator, single point]
12 | CCOc1cccc2sc(N3CCN(C(=O)C4CC4)CC3)nc12 | inactive
13 | CCCn1cc(S(=O)(=O)c2ccc(CC)cc2)c(=O)c2cc(F)c(N(CC)CC)cc21 | inactive
14 | COc1cccc(C(=O)OCC(=O)c2ccc(Br)s2)c1OC | inactive
15 | CC(C)(C)C(=O)COC(=O)c1c2c(nc3ccccc13)CCC2 | inconclusive: 10 µM [activator, partial curve, poor fit]
16 | COc1cccc(/C=C/C(=O)OCC(=O)Nc2ccc(Cl)c(S(=O)(=O)N(C)C)c2)c1 | inactive
17 | CCN(c1cccc(C)c1)S(=O)(=O)c1ccc2[nH]cc(C(=O)NCCCOC)c(=O)c2c1 | inactive
18 | CCCCC(CC)CNC(=O)CN1C(=O)CSc2ccc(S(=O)(=O)N3CCOCC3)cc21 (stereo not drawn) | inactive
19 | Cc1cc(C)c(C(=O)OCc2csc(CC(=O)Nc3ccccc3C)n2)c(C)c1 | inconclusive: 35.5 µM [activator, partial curve, poor fit]

Row | Structure (SMILES) | Potency
20 | CCCC(=O)Nc1nc(C)c(-c2csc(Nc3ccc(Cl)cc3)n2)s1 | inconclusive: 17.8 µM [activator, partial curve, poor fit]
21 | CS(=O)(=O)Nc1cccc(C2=NN(S(=O)(=O)c3ccc(F)cc3)C(c3cccs3)C2)c1 (stereo not drawn) | inconclusive: 28.2 µM [activator, single point]
22 | CC[C@]12c3[nH]c4cc(CCC(=O)N(C)C)ccc4c3CCN1C(=O)[C@@H](CC(=O)NCc1ccc(OC)c(OC)c1)C[C@@H]2C(=O)N1CCN(C(=O)c2ccco2)CC1 | inactive
23 | O=C(Cc1cccs1)Nc1nnc(COc2ccccc2)s1 | inconclusive: 50.1 µM [activator, single point]
24 | O=C(c1cccc(Cl)c1)N1CCC(=O)N([C@H](COCc2ccccc2)Cc2ccccc2)CC1 | inconclusive: 11.2 µM [activator, partial curve]
25 | Cc1nc(SCc2nc3ccc(Cl)cc3[nH]2)c2oc3ccccc3c2n1 | inconclusive: 35.5 µM [activator, single point]
26 | Cn1ccc2cc(-c3ccc4ncnc(NCc5cccs5)c4c3)ccc21 | inconclusive: 35.5 µM [activator, single point]
27 | Cc1ccc(S(=O)(=O)Nc2ccc(C(=O)N3CCN(c4ccccc4O)CC3)cc2)cc1[N+](=O)[O-] | active: 12.6 µM
28 | COc1ccc(OC)c(NC(=O)/C=C/c2ccccc2[N+](=O)[O-])c1 | inconclusive: 15.8 µM [activator, partial curve]
29 | O=C(c1ccc2c(c1)N(Cc1ccc(F)cc1)C(=O)c1ccccc1S2=O)N1CCC(Cc2ccccc2)CC1 (stereo not drawn) | inconclusive: 10 µM [activator, partial curve]
30 | COC(=O)C12C=C3CC(c4ccc(C(F)(F)F)cc4)=C3C(=O)N1Cc1[nH]c3ccccc3c1C2 (stereo not drawn) | inconclusive: 39.8 µM [activator, partial curve, poor fit]
31 | O=C(C1COc2ccccc2O1)N1CCN(c2nc3ccccc3s2)CC1 (stereo not drawn) | inactive
32 | COC(=O)c1cccc(C23CC4(C2)[C@H](CN(Cc2cccnc2)[C@@H]4c2ccccc2)C3c2ccc(C(F)(F)F)cc2)c1 (stereo partly drawn) | inconclusive: 22.4 µM [activator, partial curve, poor fit]
33 | COc1ccc(N2CCN(C(=O)c3cn(CC(C)C)c(=O)c4c3c3ccccc3n4C)CC2)cc1 | inconclusive: 22.4 µM [activator, partial curve]
34 | CCOC(=O)c1cc(-c2ccccc2)n(-c2cccc(C(=O)Nc3ccc(OC)cc3)c2)c1C | inactive
35 | CC1(C)CC(=O)C2=C(C1)N(c1ccccc1C#N)C(N)=C(C#N)C2c1cccs1 (stereo not drawn) | inconclusive: 31.6 µM [activator, single point]
36 | CC(NC(=O)CN1C(=O)NC(Cc2ccccc2)(Cc2ccccc2)C1=O)C12CC3CC(CC(C3)C1)C2 (stereo not drawn) | inconclusive: 28.2 µM [activator, single point]
37 | C/C=C/c1cccc(-c2nc(C(=O)NC3CCC3)cc3c2[C@H](CCO)N(S(=O)C(C)(C)C)C3)c1 (stereo partly drawn) | inconclusive: 20 µM [activator, partial curve, poor fit]
38 | CN(Cc1ccccc1)C(=O)c1ccc(NC(=O)Cc2cccc(NC(=O)C3CCCN(C(=O)C4CCC4)C3)c2)cc1 (stereo not drawn) | inconclusive: 20 µM [activator, single point]
